# Data: the supplement of paper PMC4723716
# ± gives the uncertainty stated by the source. In all, about 9,900 compounds were measured (“viability index relative to DMSO control”: median about 1, lowest 2% from about 0.85 on). Some of the results follow.
# System: Plasmodium falciparum NF54 stage V gametocytes
# Assay: viability index relative to DMSO control (fraction); higher = less gametocyte killing
# Conditions: 2.5 µM, incubation time: 72 h
# Procedure, shortened: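 In 1,536-well plates, 10 µl of serum-free medium holding P. falciparum NF54 stage V gametocytes (0.75% gametocytemia, 1.25% hematocrit) received compound at 2.5 µM for 72 hr at 37°C in low oxygen. After one to two hours with 3 µl of 2.5 µM MitoTracker Red CMXRos containing 0.13% saponin, red particles of 20–70 µm2 were counted in a single field per well. Viability index is reported as the particle count over the plate mean of wells treated with solvent only.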
# [1] = library set: Broad Institute DOS
Compound,viability index [1],viability index (library set: Broad Institute Blood Stage)
Cc1cccc(-c2ccc([C@@H]3[C@@H](CO)N4CCCCN(S(=O)(=O)c5ccccc5F)C[C@@H]34)cc2)c1,1.1 ± 0.096,
CCC(=O)N1C[C@H]2[C@@H](c3ccccc31)[C@H](CO)N2C(=O)CC1CC1,0.955 ± 0.082,
COc1ccc(C(=O)N2C[C@@H]3[C@H](c4ccccc42)[C@@H](CO)N3C(=O)Cc2ccccn2)cc1,0.977 ± 0.048,
C[C@@H]1CN([C@@H](C)CO)C(=O)c2cc(NS(=O)(=O)c3cccs3)ccc2O[C@@H](C)CCCCO[C@H]1CN(C)C(=O)c1ccncc1,1.07 ± 0.045,
CN1C(=O)c2cc(NC(=O)Nc3ccccc3F)ccc2OC[C@H]2O[C@@H](CC(=O)NCCc3ccncc3)CC[C@H]21,1.07 ± 0.087,
COc1ccccc1-c1cccc(-c2nc(C(=O)NCc3ccncc3)cc3c2[C@@H](CCO)N([S@](=O)C(C)(C)C)C3)c1,1.01 ± 0.04,
O=C(CCN1CCCCC1)N[C@@H]1CC[C@H](CCn2cc(-c3cccc(F)c3)nn2)O[C@H]1CO,1.13 ± 0.015,
CN1C(=O)c2cc(NC(=O)Nc3ccccc3F)ccc2OC[C@@H]2O[C@H](CC(=O)NCCc3ccncc3)CC[C@@H]21,0.937 ± 0.08,
C/C=C/c1ccc([C@@H]2[C@H](CO)N(CCC(F)(F)F)C23CN(C(=O)CC2CC2)C3)cc1,1.106 ± 0.0046,
C[C@@H]1CCCCO[C@H](CN(C)C(=O)Nc2ccc3c(c2)OCO3)[C@H](C)CN([C@H](C)CO)C(=O)c2cc(NS(=O)(=O)c3ccc(F)cc3)ccc2O1,1.05 ± 0.035,
Cc1noc(C)c1S(=O)(=O)N(C)C[C@H]1OCCCC[C@@H](C)Oc2ccc(NS(=O)(=O)c3cn(C)cn3)cc2C(=O)N([C@H](C)CO)C[C@@H]1C,1.11 ± 0.1,
NCC[C@H]1CC[C@H](NC(=O)NC2CCCCC2)[C@@H](CO)O1,0.995 ± 0.088,
CCS(=O)(=O)N1C[C@@]2(C1)CN([C@@H](CO)c1[nH]c3cc(OC)ccc3c21)C(=O)Nc1c(C)noc1C,0.951 ± 0.047,
CN(C)C(=O)c1cccc(-c2ccc3c(c2)[C@H]2[C@H](CCN2C(=O)c2cnccn2)[C@@H](CO)N3)c1,1.16 ± 0.02,
O=C(C[C@@H]1CC[C@@H]2[C@H](COC[C@@H](O)CN2C(=O)c2ccc3c(c2)OCO3)O1)NC1CCC1,1.07 ± 0.062,
CC(C)NC(=O)Nc1ccc2c(c1)C(=O)N(C)[C@H]1CC[C@@H](CC(=O)NCc3ccc(F)cc3)O[C@@H]1CO2,1.09 ± 0.037,
CC(C)CC#Cc1ccc([C@@H]2[C@H]3CN(S(=O)(=O)c4cccc(F)c4)CC(=O)N3[C@H]2CO)cc1,0.896 ± 0.13,
Cc1ccc(S(=O)(=O)Nc2ccc3c(c2)CC(=O)N([C@H](C)CO)C[C@@H](C)[C@@H](CN(C)S(=O)(=O)c2ccccc2)O3)cc1,0.949 ± 0.021,
O=C(NC1CCCC1)N[C@@H]1C=C[C@@H](CC(=O)N2CCOCC2)O[C@@H]1CO,1.08 ± 0.096,
C[C@@H]1CCn2cc(nn2)COC[C@H](c2ccccc2)NC1=O,0.932 ± 0.072,
CN1C(=O)c2cc(NC(=O)Nc3ccccc3Cl)ccc2OC[C@@H]2O[C@H](CC(=O)NCCCN3CCOCC3)CC[C@H]21,1.14 ± 0.13,
CCCNC(=O)N1C[C@]2(CCN(CC2)C(=O)Cc2cccnc2)c2c([nH]c3cc(OC)ccc23)[C@@H]1CO,1.06 ± 0.12,
Cc1noc(C)c1NC(=O)Nc1ccc2c(c1)C(=O)N([C@H](C)CO)C[C@@H](C)[C@H](CN(C)S(=O)(=O)c1cccs1)OCCCC[C@@H](C)O2,1.04 ± 0.023,

Compound,viability index [1],viability index (library set: Broad Institute Blood Stage)
CCCNC(=O)N1C[C@]2(CCN(CC2)S(=O)(=O)c2ccccc2)c2c([C@@H]1CO)n(C)c1cc(OC)ccc21,1.02 ± 0.017,
COc1ccc2c3c([C@@H](CO)N(C[C@]33CCN(Cc4ccncc4)CC3)C(=O)CN3CCOCC3)n(C)c2c1,1.04 ± 0.013,
CCC(=O)N1CC(=O)N2[C@H](C1)[C@@H](c1ccc(C#CCC(C)C)cc1)[C@@H]2CO,0.937 ± 0.026,
CCS(=O)(=O)N1CC2(C1)[C@@H](c1ccccc1)[C@@H](CO)N2Cc1ccccn1,1.1 ± 0.034,
CCNC(=O)[C@H]1[C@H](CO)[C@H]2Cn3c(ccc(-c4cncnc4)c3=O)[C@H]2N1C(=O)NC1CCCC1,1 ± 0.035,
COc1ccccc1-c1cccc(-c2nc(C(=O)NCc3ccncc3)cc3c2[C@H](CCO)N([S@@](=O)C(C)(C)C)C3)c1,1.08 ± 0.025,
COc1ccc(NC(=O)N(C)C[C@H]2Oc3c(NC(=O)Nc4ccccc4)cccc3C(=O)N([C@@H](C)CO)C[C@H]2C)cc1,,0.724 ± 0.05
COCC(=O)N1[C@@H](C#N)[C@@H](c2ccccc2C2=CCCC2)[C@@H]1CO,1.08 ± 0.044,
O=C(c1cccc(F)c1)N1CC2(C1)[C@@H](c1ccccc1)[C@@H](CO)N2C(=O)C1CCCCC1,1.1 ± 0.041,
CC(C)NC(=O)Nc1ccc2c(c1)C(=O)N([C@@H](C)CO)C[C@H](C)[C@@H](CN(C)C(=O)C1CCCCC1)OCCCC[C@H](C)O2,1.03 ± 0.082,
COCC(=O)Nc1ccc2c(c1)C(=O)N(C)C[C@H](OC)[C@@H](C)CN(C(=O)c1ccncc1)[C@H](C)CO2,1.14 ± 0.035,
C[C@@H]1CN([C@H](C)CO)C(=O)c2c(c3ccccc3n2C)-c2ccccc2CO[C@@H]1CN(C)C,0.985 ± 0.16,
CCCC(=O)N1C[C@@]2(C1)CN(Cc1ccccc1F)[C@@H](CO)c1c2c2ccc(OC)cc2n1C,1.05 ± 0.09,
COc1ccc(S(=O)(=O)N(C)C[C@H]2OCCCC[C@H](C)Oc3ccc(NC(=O)Cc4ccccc4)cc3C(=O)N([C@@H](C)CO)C[C@@H]2C)cc1,1.08 ± 0.053,
O=C(c1ccc(F)cc1)N1CC(=O)N2[C@H](CO)[C@@H](c3ccc(C#CCC4CCCC4)cc3)[C@@H]2C1,1.05 ± 0.035,
CO[C@@H]1CN(C)C(=O)c2cc(NC(=O)NC3CCCCC3)ccc2OC[C@H](C)N(CC2CCOCC2)C[C@@H]1C,1.04 ± 0.039,
C[C@H](CO)N1C[C@H](C)[C@H](CN(C)C(=O)[C@H](Cc2ccccc2)N(C)C)OCc2ccccc2-c2ccccc2C1=O,0.975 ± 0.12,
O=C(C1CCOCC1)N1CC(=O)N2[C@H](CO)[C@H](c3ccc(C#CCc4ccccc4)cc3)[C@H]2C1,1.07 ± 0.076,
O=C(c1cnccn1)N1CC(=O)N2[C@H](C1)[C@H](c1ccc(-c3cccc(F)c3)cc1)[C@@H]2CO,0.926 ± 0.048,
COc1ccc(NC(=O)N2CCCCN3[C@H](CO)[C@H](c4ccc(-c5ccccc5F)cc4)[C@@H]3C2)cc1,1.14 ± 0.064,
Cc1ccccc1-c1ccc([C@H]2[C@H]3CN(S(C)(=O)=O)CC(=O)N3[C@H]2CO)cc1,0.975 ± 0.047,
CC(C)NC(=O)N1[C@H](C#N)[C@H](c2ccccc2-c2ccc(F)cc2)[C@@H]1CO,0.934 ± 0.039,
CCC(=O)N1CC2(C1)[C@@H](c1ccc(-c3ccccc3C)cc1)[C@@H](CO)N2C(=O)CC,1 ± 0.01,

Compound,viability index [1],viability index (library set: Broad Institute Blood Stage)
CC(=O)N1[C@@H](CO)[C@H](c2ccccc2)[C@@H]1CNC(=O)CN1CCOCC1,1.06 ± 0.045,
COc1ccc(S(=O)(=O)Nc2ccc3c(c2)C(=O)N([C@H](C)CO)C[C@@H](C)[C@@H](CN(C)S(=O)(=O)c2ccc(Cl)cc2)OCCCC[C@H](C)O3)cc1,0.864 ± 0.13,
O=C(C[C@@H]1C=C[C@@H](NC(=O)CCN2CCCCC2)[C@H](CO)O1)Nc1nccs1,0.9128 ± 0.0086,
O=C1N[C@@H](c2ccccc2)COCc2cnnn2CC[C@@H]1Cc1ccc(C(F)(F)F)cc1,1.0478 ± 0.0005,
OC[C@@H]1[C@@H](c2ccccc2)C2(CN(Cc3cc(F)ccc3F)C2)N1CC1CCCC1,1.01 ± 0.015,
CCCNC(=O)N1CC(=O)N2[C@H](C1)[C@@H](c1ccc(-c3ccc(F)cc3)cc1)[C@@H]2CO,1.06 ± 0.045,
C[C@H](NC(=O)C[C@H]1C=C[C@H](NC(=O)c2cccnc2)[C@@H](CO)O1)c1ccccc1,1.08 ± 0.069,
COc1ccc(S(=O)(=O)Nc2ccc3c(c2)C(=O)N([C@H](C)CO)C[C@H](C)[C@H](CN(C)C(=O)Nc2c(C)noc2C)OCCCC[C@@H](C)O3)cc1,1.05 ± 0.069,
O=C(C[C@H]1CC[C@H]2[C@@H](COC[C@H](O)CN2Cc2nccs2)O1)NCc1ccccc1Cl,1.1 ± 0.057,
CO[C@@H]1CN(C)C(=O)c2cc(NS(=O)(=O)Cc3ccccc3)ccc2OC[C@@H](C)N(Cc2nccs2)C[C@H]1C,0.972 ± 0.021,
COCCNC(=O)C[C@@H]1CC[C@@H]2[C@@H](COc3ccc(NS(=O)(=O)c4ccc(Cl)cc4)cc3C(=O)N2C)O1,1.1 ± 0.092,
CCNC(=O)C[C@H]1CC[C@@H]2[C@H](COC[C@@H](O)CN2C(=O)C2CCCC2)O1,1.047 ± 0.0089,
CN(C)C(=O)C[C@@H]1CC[C@H]2[C@@H](COc3ccc(NC(=O)C4CCCCC4)cc3C(=O)N2C)O1,0.984 ± 0.11,
CO[C@@H](CN(C)S(=O)(=O)c1ccc(C)cc1)[C@@H](C)CN([C@H](C)CO)S(=O)(=O)c1cccc(Cl)c1,1.05 ± 0.068,
O=C(C[C@H]1CC[C@@H]2[C@H](COC[C@@H](O)CN2C(=O)Nc2ccc(Cl)cc2)O1)NCC1CCCCC1,1.02 ± 0.02,
COc1cccc(-c2ccccc2[C@H]2[C@@H](C#N)N(C(=O)c3ccccn3)[C@@H]2CO)c1,1.07 ± 0.16,
COc1cccc(NC(=O)N2CC3(C2)[C@H](c2ccccc2)[C@@H](CO)N3C(C)=O)c1,1.089 ± 0.0018,
COc1ccc(-c2ccc([C@H]3[C@H](CO)N4C(=O)CN(Cc5ccccc5)C[C@@H]34)cc2)cc1,1.06 ± 0.046,
C/C=C/c1ccc2c(c1)[C@@H]1[C@@H](CCN1C(=O)c1cnccn1)[C@H](CO)N2,1.04 ± 0.025,
COc1ccc(CNC(=O)C[C@H]2C[C@@H]3c4cc(N(C)C)ccc4O[C@@H]3[C@@H](CO)O2)cc1,0.982 ± 0.13,
C[C@@H]1CCCCO[C@H](CN(C)Cc2ccncc2)[C@@H](C)CN([C@H](C)CO)C(=O)c2cc(NC(=O)Cc3ccccc3)ccc2O1,0.993 ± 0.079,
C[C@@H]1CCCCO[C@@H](CN(C)Cc2ccc(Cl)c(Cl)c2)[C@@H](C)CN([C@H](C)CO)C(=O)c2cc(NC(=O)CCCCCC(=O)Nc3ccccc3N)ccc2O1,0.947 ± 0.062,
CCS(=O)(=O)N1CC[C@@]2(CC1)CN([C@H](CO)c1[nH]c3cc(OC)ccc3c21)S(=O)(=O)c1ccc(C)cc1,1 ± 0.046,
